The source gives no read counts; variants with many changes may rest on few reads.
B1: OR4K15 (parent)
chain: GUUAACGGUCAUAGGCCAUGGAAACUAGGAGCACCAUUUCGCUGCCAGUGAAGAAAUGAACAAAGAAAAUCUGGGCCAGGCAGGCAUCAAAAGAAAUAGUCUUGCGCUCAACCAGAAAGUCUGUAAUCAUUUUAAGGGUA

Variants of: B1
Test: self-cleavage, relative activity (ratio to wild type); higher = more cleavage; in vitro, sequencing; the parent is a self-cleaving ribozyme
Work on A30G U127A U130C U132C yielded a self-cleavage of 1.38.
Work on A30G U39C C40A U127A yielded a self-cleavage of 1.98.
Variant A30G A98G G137U has a self-cleavage of 0.84.
A30G U43A A69G U108C gave a self-cleavage of 0.03.
For A30G A69G A82G U87C, the self-cleavage was 0.45.
Variant A30G U39A A54U A91G A116U has a self-cleavage of 0.04.
Variant A30G U39A A91G U97A has a self-cleavage of 0.94.
A30G A116G U127C showed a self-cleavage of 0.53.
In the case of A30G U38C U43C U49C U127C, the self-cleavage is reported as 0.84.
In the case of A30G A55G A59G, the self-cleavage is reported as 0.49.
With A30G A47G A59G A92U U103C U108C U127A the self-cleavage was 0.01.
Variant A30U A36G U38C A56G U100C has a self-cleavage of 1.48.
Variant G29A A60G C112A U122C has a self-cleavage of 0.03.
A30G A56G A69G showed a self-cleavage of 1.26.
Variant A30G G75C A89U A98G U103A A126G has a self-cleavage of 0.01.
In the case of A30G A96G A125G U139C, the self-cleavage is reported as 0.64.
For A30G G31A A66U C107G, the self-cleavage was 0.02.
For A30C A67G A110G, the self-cleavage was 0.12.
A30G U57C U103C showed a self-cleavage of 0.5.
With A30G C45G A78G U122G the self-cleavage was 0.3.
In the case of A30G U49G A52U, the self-cleavage is reported as 1.76.
With A30U A47G U49C the self-cleavage was 1.28.
With A30G G44A A47G the self-cleavage was 1.67.
A30G A54G U57C U103C showed a self-cleavage of 0.55.
In the case of A30G A59G U132C, the self-cleavage is reported as 2.03.
A30G A55G U102C U103C A116U U131C gave a self-cleavage of 0.
For A30G A55C A59G C77U U132C, the self-cleavage was 1.27.
With A30G A47G A51G U124C the self-cleavage was 1.12.
Variant A30G A47G U49C A68U A118G U130C has a self-cleavage of 0.26.
With A30G A59G U87C A92G U127C the self-cleavage was 1.03.
Work on A30G U87C A94G yielded a self-cleavage of 1.84.
Variant A30G A63G A117G has a self-cleavage of 2.22.
A30G A68G U132C showed a self-cleavage of 1.51.
Work on A30G U49C A110C yielded a self-cleavage of 0.32.
Variant A30G A36G U100C U122A A126G has a self-cleavage of 1.74.
In the case of A30U A55G A116G, the self-cleavage is reported as 0.36.
Variant A30C C109U A129U has a self-cleavage of 0.18.
In the case of A30G C113U U122A U127C A135G, the self-cleavage is reported as 0.
In the case of A30G U49C A52G A60U U103C, the self-cleavage is reported as 0.31.
Work on A30G U43C A64G A82G yielded a self-cleavage of 0.33.
A30G A52G U130C U131C gave a self-cleavage of 1.12.
G29A A69G A91G C105U showed a self-cleavage of 0.06.
With A30G A52G A90G the self-cleavage was 0.26.
For A30G A47C A62G A67G A126G, the self-cleavage was 0.73.
A30C A90G A129G showed a self-cleavage of 0.14.
A30G A63G A90C U127C gave a self-cleavage of 0.29.
A30G C61U A96G gave a self-cleavage of 1.44.
G29A A86U A116G showed a self-cleavage of 0.56.
A30G A51G A69G U131C gave a self-cleavage of 0.98.
In the case of A30G A51G A86G A126G, the self-cleavage is reported as 0.98.
Variant A30G A60G A68G A89G has a self-cleavage of 2.03.
G29U A33G U49C A90G showed a self-cleavage of 0.91.
With A30G U72C A117G A125G the self-cleavage was 0.09.
With A30G A36U A78U A114U U130C the self-cleavage was 0.02.
A30G A33G A82G A94G U130C gave a self-cleavage of 0.21.
With A30G U87C A89G the self-cleavage was 0.65.
For A30G C35U A62G A66U A140G, the self-cleavage was 0.94.
Work on A30G U49A A66G A96G yielded a self-cleavage of 1.62.
In the case of G29A A68G A116G U132A, the self-cleavage is reported as 0.3.
In the case of A30G A64G A98U A134U, the self-cleavage is reported as 0.52.
With A30G A56G U122C U132C the self-cleavage was 0.98.
G29A C46G A54U U108C gave a self-cleavage of 0.
A30G A33U U43C gave a self-cleavage of 0.71.
Work on A30G A62G A118G yielded a self-cleavage of 0.89.
Work on A30G U43C A116U yielded a self-cleavage of 0.09.
Work on A30G A67G U103C yielded a self-cleavage of 0.71.
A30G A90G A118G showed a self-cleavage of 0.69.
A30G A96G U122A gave a self-cleavage of 0.67.
A30G C42U A47G U72C U120C gave a self-cleavage of 0.2.
A30G A52G A78U U100C A110U U133A showed a self-cleavage of 0.09.
Variant A30G U37G U38C has a self-cleavage of 0.76.
For A30G A118G U127C A134G, the self-cleavage was 0.52.
Variant A30G A36U A98G U108C U127C has a self-cleavage of 0.01.
A30G U37C U38C A96U showed a self-cleavage of 1.13.
A30G A54G U132C gave a self-cleavage of 1.33.
A30G A78G A82G gave a self-cleavage of 0.09.
In the case of A30G A59G A67G, the self-cleavage is reported as 1.47.
With A30C U37C A96U A110G the self-cleavage was 0.11.
For A30G A56G A66G A67G A95G, the self-cleavage was 2.06.
In the case of A30G A67G U72A, the self-cleavage is reported as 0.7.
Variant A30G U70C U122A U131C has a self-cleavage of 0.54.
Variant A30G A59G U103A has a self-cleavage of 0.57.
With A30G A118G A126G the self-cleavage was 0.35.
Work on A30G A47G U87C A94G yielded a self-cleavage of 1.45.
In the case of A30G U37C A78C A95G A114U A118G, the self-cleavage is reported as 0.08.
A30G U49C A82G U103C U130C gave a self-cleavage of 1.27.
Work on G29A U72C A89G A125G U130C yielded a self-cleavage of 0.02.
Work on A30G A33C U49C A55G A59G C109A U122A G137A yielded a self-cleavage of 0.29.
Variant A30G A92G A111G U131C has a self-cleavage of 0.01.
Variant A30G U39A A62C U70C G74A U100A has a self-cleavage of 0.09.
A30G U49C A62G A63G G115A showed a self-cleavage of 0.07.
With A30G A51U U108C the self-cleavage was 0.11.
Variant A30G U131C U132C has a self-cleavage of 1.44.
A30U A33U U103C showed a self-cleavage of 1.53.
With A30G A47G A78C A90G the self-cleavage was 0.18.
A30G A56G A64G A96G showed a self-cleavage of 1.73.
A30G A78U G106U A126G showed a self-cleavage of 0.01.
A30G A56G A67G A86G A92G U131C gave a self-cleavage of 0.63.
Variant A30G A89G U102C U108C U120C has a self-cleavage of 0.
In the case of A30G A59U U72C, the self-cleavage is reported as 0.23.
A30G A67G U102C showed a self-cleavage of 0.51.
For A30G G41A A55U U108A U120C, the self-cleavage was 0.01.
In the case of A30G A78G A140G, the self-cleavage is reported as 0.11.
Variant A30G A51G A59G A78G A135G has a self-cleavage of 0.21.
In the case of A30G U102A U108C U130C, the self-cleavage is reported as 0.
A30G U37C A67G A110U gave a self-cleavage of 1.43.
For A30G U43A U122C U130C, the self-cleavage was 1.1.
A30G A92U A98G U102C A117G A135G showed a self-cleavage of 1.13.
With G29C U39C A78U the self-cleavage was 0.
For A30G U38C U122C U132C, the self-cleavage was 0.65.
A30G A66G U103G showed a self-cleavage of 0.11.
A30G A51U A117U gave a self-cleavage of 1.
G29U A30C A63G A110G A116G gave a self-cleavage of 0.09.
A30G A54G A125G gave a self-cleavage of 0.28.
Work on A30G U37A A59G yielded a self-cleavage of 1.57.
With A30G U39G A92U the self-cleavage was 1.65.
A30G A59U U122A gave a self-cleavage of 1.33.
A30G A52C A55C U127C showed a self-cleavage of 1.02.
Work on A30G A95G U103C C105U A118G yielded a self-cleavage of 0.07.
Variant A30G A60G A92G A114U has a self-cleavage of 0.03.
In the case of A30G A47U A90G, the self-cleavage is reported as 0.57.
Work on A30G U57A U120C yielded a self-cleavage of 0.94.
With A30G U49C A96G A98G the self-cleavage was 0.75.
With A30G A78G A86U U122C the self-cleavage was 0.22.
Work on A30G U57A U124C yielded a self-cleavage of 0.75.
Work on A30G A92G A118G yielded a self-cleavage of 0.46.
A30G A47U A55G A94G gave a self-cleavage of 0.85.
A30G A52U U132C gave a self-cleavage of 1.
A30G U103A G137A showed a self-cleavage of 0.83.
A30G U38C U49A C105A showed a self-cleavage of 0.03.
In the case of A30G U97A A129U, the self-cleavage is reported as 0.47.
A30G U100C A135U gave a self-cleavage of 1.32.
Work on A30U A52G A95G yielded a self-cleavage of 0.98.
Work on A30G U37C A51G A56U U127C yielded a self-cleavage of 1.05.
Variant A30G U43G U133C has a self-cleavage of 2.34.
With A30G A95G A110G A117G U124C the self-cleavage was 0.11.
In the case of A30G U87A A111G A125G, the self-cleavage is reported as 0.
A30U A54G U72C gave a self-cleavage of 0.27.
Variant A30G A68G A90U has a self-cleavage of 1.02.
A30G U87C A95G showed a self-cleavage of 1.65.
In the case of A30G C34U A78G A92G U102C, the self-cleavage is reported as 0.38.
A30G A55G A62G A64G A94U showed a self-cleavage of 1.21.
Work on A30G A60U A92G U97A A116G U131C A135G yielded a self-cleavage of 0.34.
A30G A47G U103C U122C gave a self-cleavage of 0.54.
Variant A30G G31A U43C U72C has a self-cleavage of 0.14.
In the case of A30G A82U G123U, the self-cleavage is reported as 0.34.
Work on A30G A52U A78G yielded a self-cleavage of 0.29.
A30G A59U A111G gave a self-cleavage of 0.
In the case of A30G A60G A91G A125G, the self-cleavage is reported as 0.18.
Variant A30G A86G A111G A117G has a self-cleavage of 0.01.
Variant A30G C40A A117U has a self-cleavage of 1.04.
For A30G A117G A118U, the self-cleavage was 0.8.
With A30G U38C A55G A140U the self-cleavage was 0.8.
For A30G A96G A111U, the self-cleavage was 0.25.
For G29U C32U A91G, the self-cleavage was 1.22.
With A30G C42U U87C the self-cleavage was 0.25.
Variant A30G U43A A67G A90G has a self-cleavage of 1.56.
With A30G A55G A66G A116G the self-cleavage was 0.72.
A30G A51G A63C A78C A89U gave a self-cleavage of 0.24.
Work on A30G A54G A56U G80A A114C yielded a self-cleavage of 0.02.
For G29U A51G A59G U108A, the self-cleavage was 0.
Variant A30G A52G U124C has a self-cleavage of 1.18.
In the case of A30G U70C U72A, the self-cleavage is reported as 0.18.
For A30G A33U A111G, the self-cleavage was 0.04.
A30G A89G A117G showed a self-cleavage of 1.02.
Variant A30G U37C U43C A54U has a self-cleavage of 1.12.
In the case of A30G A33G A67U A96U, the self-cleavage is reported as 1.63.

Source: the RNAGym collection of RNA variant scans (doi:10.7554/elife.90254)
